Experimental data: PubChem BioAssay AID360 (National Center for Advancing Translational Sciences (NCATS), 2006)
Out of some 48,000 compounds screened, about 550 (1.1%) were called active. Roughly 4% stayed inconclusive and do not appear here. No stated cut-off is given here; in the data, active means potency below about 15 µM; inconclusive means mostly about 16 µM to 33 µM; inactive means weaker than that. The list shows a part of the results.

Target: Lysosomal acid glucosylceramidase (Homo sapiens) (UniProt P04062)
UniProt P04062, sequence (P04062 whole entry, looked up): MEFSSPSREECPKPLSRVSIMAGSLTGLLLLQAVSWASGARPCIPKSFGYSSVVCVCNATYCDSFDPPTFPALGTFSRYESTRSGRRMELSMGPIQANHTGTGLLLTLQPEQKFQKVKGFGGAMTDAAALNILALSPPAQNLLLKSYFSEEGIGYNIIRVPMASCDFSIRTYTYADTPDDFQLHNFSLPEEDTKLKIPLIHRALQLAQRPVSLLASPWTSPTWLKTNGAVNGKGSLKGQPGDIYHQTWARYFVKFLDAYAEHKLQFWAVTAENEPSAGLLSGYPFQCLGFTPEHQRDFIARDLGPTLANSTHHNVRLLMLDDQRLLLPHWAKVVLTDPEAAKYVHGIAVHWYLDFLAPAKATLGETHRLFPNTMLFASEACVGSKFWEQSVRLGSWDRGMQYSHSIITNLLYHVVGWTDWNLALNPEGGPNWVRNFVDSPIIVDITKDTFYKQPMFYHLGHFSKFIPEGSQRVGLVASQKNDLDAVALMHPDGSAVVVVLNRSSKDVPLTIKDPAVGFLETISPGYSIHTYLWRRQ
Test: Glucocerebrosidase;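 further: the screen sought inhibitors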
Settings: purified enzyme, resorufin glucoside fluorescence (screen aimed at inhibitors), 20 min; series mostly up to 77 µM
Summary of the method: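 Normal human glucocerebrosidase (0.2 nM final) was assayed with resorufin β-D-glucopyranoside (30 uM final) in 50mM citric acid/KH2PO4, 10mM sodium taurocholate, 0.01% tween-20, pH 5.9. Compounds were titrated; fluorescence (Ex 548, Em 600) read after 20 min at RT.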
Potency means the concentration at half of the fitted maximal effect.

Potency, inactive:
COc1cc(C2C(C#N)=C(C)NC3=C2C(=O)c2ccccc23)cc(OC)c1OC (stereo unspecified) > 76.9 µM
COc1ccccc1C(=O)N1CCCC(c2nc(-c3cc(OC)c(OC)c(OC)c3)no2)C1 (stereo unspecified) > 76.9 µM
COC(=O)c1cc(OC)c(OC)cc1NC(=O)CN1CCCCC1 > 76.9 µM
CCOC(=O)C1CCN(C(c2cc3ccc(C)c(C)c3[nH]c2=O)c2nnnn2C2CCCCC2)CC1 (stereo unspecified) > 76.9 µM
Cc1ccc2c(CC(=O)O)coc2c1C > 76.9 µM
CCOc1cccc(C(=O)N(Cc2ccco2)C2CCS(=O)(=O)C2)c1 (stereo unspecified) > 76.9 µM
Cc1ccc(-n2c(N)c(C(=O)N3CCCCC3)sc2=S)cc1 > 76.9 µM
CCOC(=O)c1[nH]nc(C(=O)c2ccc(Br)cc2)c1O > 76.9 µM
Clc1ccccc1Nc1ncnc2c1nnn2Cc1ccccc1 > 76.9 µM
CCOC(=O)CSc1nnnn1-c1cc(OC)ccc1OC > 76.9 µM
Cc1cccc(/N=C/c2c(O)c3ccccc3oc2=O)n1 > 76.9 µM
COc1cc(NC(=O)c2noc3c2CCC3)c(OC)cc1Cl > 76.9 µM
CN(CCNC(=O)c1cccc(N2CCCC2=O)c1)Cc1ccccc1 > 76.9 µM
COc1ccc(NC(=O)c2cnc(C)cn2)cc1-n1cnnn1 > 76.9 µM
Cc1cc(NC(=O)COc2cccc(Oc3ccccc3)c2)no1 > 76.9 µM
Clc1ccc(-c2noc(CN3CCCC3)n2)cc1 > 76.9 µM
Cc1ccc(Cl)cc1N1CCN(Cc2nnnn2Cc2ccco2)CC1 > 76.9 µM
Cc1cc2n(n1)C(c1ccc(O)cc1)Nc1ccccc1-2 (stereo unspecified) > 76.9 µM
CCc1c(C)c2cc(Cl)c(O)c(CN(C)C)c2oc1=O > 76.9 µM
CCOC(=O)c1cncc(NC(=O)c2ccccc2)c1 > 76.9 µM
Cc1ccnc(SCCn2c(N3CCC(C)CC3)nc3c2c(=O)n(C)c(=O)n3C)n1 > 76.9 µM
CC(=O)c1cccc(NC(=O)C2CCCN(S(C)(=O)=O)C2)c1 (stereo unspecified) > 76.9 µM
COc1ccccc1OCC(=O)Nc1nnc(-c2ccco2)s1 > 76.9 µM
CC(C)OC(=O)CSc1nc2cccnc2n1C1CCCCC1 > 76.9 µM
CCCCN(C(=O)NC(=O)Nc1cc(C)ccc1C)S(C)(=O)=O > 76.9 µM
O=C(Cc1ccccc1F)Nc1nc(-c2cccs2)cs1 > 76.9 µM
Nc1nonc1C(=O)NCCNC(=O)c1ccccc1F > 76.9 µM
CN=C(Nc1cc(C)nn1CCC#N)c1ccc(F)cc1 > 76.9 µM
CCOc1ccc(C(=O)Nc2ccc(Cl)cn2)cc1Cl > 76.9 µM
COc1ccc(Cl)cc1-n1c(=S)sc2c(=O)[nH]c(SCC(=O)NCC3CCCO3)nc21 (stereo unspecified) > 76.9 µM
CCN1C(=O)N(C)C2(c3ccccc3)N(C)C(=O)N(C)C12c1ccccc1 (stereo unspecified) > 76.9 µM
O=C(CC1(O)C(=O)Nc2ccc(Br)cc21)c1ccc2c(c1)OCO2 (stereo unspecified) > 76.9 µM
CCOC(=O)c1ccc(NC(=O)CSc2nnc(CNC(=O)c3c(F)cccc3Cl)o2)cc1 > 76.9 µM
CC(=O)NCC12CC3CC(C1)CC(C(=O)O)(C3)C2 > 76.9 µM
Cc1nc(NCCN2CCOCC2)c2nnn(Cc3c(F)cccc3Cl)c2n1 > 76.9 µM
C=CCOc1c(Br)cc(CNn2nnnc2N)cc1OCC > 76.9 µM
Cc1cc(=S)cc(C)n1CCCO > 76.9 µM
CC1=C(C(=O)NCCN2CCN(C)CC2)C2(CCC(C)CC2)OC1=O (stereo unspecified) > 76.9 µM
COc1ccc(CC(=O)Nc2c3c(nn2-c2cccc(C)c2C)CS(=O)(=O)C3)cc1 > 76.9 µM
N#Cc1c(NC(=O)c2nc3ncccn3n2)sc2c1CCCCC2 > 76.9 µM
COCCCNC(=O)CN(c1cc(OC)ccc1OC)S(=O)(=O)c1ccccc1 > 76.9 µM
CCOC(=O)c1cc(S(=O)(=O)NC2CCN(C(=O)OCC)CC2)cn1C > 76.9 µM
O=C(CN1C(=O)c2ccccc2S1(=O)=O)N1CCc2ccccc21 > 76.9 µM
CCOC(=O)c1[nH]c(C)c(/C(O)=C2\C(=O)C(=O)N(CCN(C)C)C2c2ccc(C)o2)c1C (stereo unspecified) > 76.9 µM
Cc1ccc2[nH]c3c(=O)n(CCCN4CCOCC4)cnc3c2c1 > 76.9 µM
CCOCCCNCc1ccc(OC)c(OC)c1 > 76.9 µM
Cc1cc(C)n2nc(C(=O)Nc3cccnc3)nc2n1 > 76.9 µM
Cc1cc(=O)cc(C)n1-c1ccccc1N1CCOCC1 > 76.9 µM
COC(=O)C1=C(N)OC2=C(C(=O)CCC2)C1c1cccs1 (stereo unspecified) > 76.9 µM
COc1ccccc1NC(=O)C(C)Sc1nnnn1C (stereo unspecified) > 76.9 µM
CC1CCCN(S(=O)(=O)c2ccc(NC(=O)Cn3nnc(-c4ccccc4F)n3)cc2)C1 (stereo unspecified) > 76.9 µM
CCOCCCNC(=O)c1[nH]c(C)c(C(C)=O)c1C > 76.9 µM
Cn1c(CN2CCOCC2)nc2cc(NC(=O)c3ccc(Cl)cc3)ccc21
COc1ccc(-c2nc(CS(=O)CC(=O)NCCCN3CC(C)CC(C)C3)c(C)o2)cc1OC (stereo unspecified) > 76.9 µM
CCOC(=O)C1CCCN(C(=O)c2ccc3c(c2)OCO3)C1 (stereo unspecified) > 76.9 µM
Cc1nc(NCC2CCCO2)[nH]c(=O)c1CCC(C)C (stereo unspecified) > 76.9 µM
O=c1c2ccccc2nnn1CSc1nnc(Nc2ccccc2)s1 > 76.9 µM
CC(=O)OC(C(=O)n1nc(C)cc1C)c1ccccc1 (stereo unspecified) > 76.9 µM
COc1ccc(CCNC(=O)c2nnn(-c3ccccc3OC)c2N)cc1OC > 76.9 µM
Cc1c(C(=O)Nc2ccc3oc(-c4cccnc4)nc3c2)oc2ccccc12 > 76.9 µM
CN(C)/C=C1\C(=O)c2ccc(N(C)C)nc2CC1c1ccccc1 (stereo unspecified) > 76.9 µM
C=C(C)COc1ccc(-c2nc(N)ncc2Oc2ccc(OC)cc2)c(O)c1 > 76.9 µM
COc1ccc2[nH]c(=O)c(CN(CC3CCCO3)C(=O)Nc3ccc(F)cc3)cc2c1 (stereo unspecified) > 76.9 µM
CC(C)COc1ccc(-c2nnc(-c3ccncc3)o2)cc1 > 76.9 µM
CCCCNC(=O)CCC(=O)Nc1ncc(-c2ccc(C)cc2)n1C > 76.9 µM
Cc1occc1-c1nnc(SCC(=O)NCc2ccc3c(c2)OCO3)n1CC(C)C > 76.9 µM
O=C(NCC1COc2ccccc2O1)Nc1ccccc1F (stereo unspecified) > 76.9 µM
COc1ccc(C2C(C#N)=C(N)Oc3n[nH]c(-c4ccccn4)c32)c(OC)c1OC (stereo unspecified) > 76.9 µM
CCOC(=O)c1ccc(S(=O)(=O)Nc2ccccc2-c2nnn(CC)n2)cc1 > 76.9 µM
COC(=O)CNC(=O)c1ccc(=O)oc1 > 76.9 µM
CCCN1Cc2cccc(C(=O)Nc3ccc(CN4CCCC4)cc3)c2C1=O > 15.4 µM
Cc1ccc(C(=O)OCC(=O)NCc2ccc3c(c2)OCO3)s1 > 76.9 µM
CCOC(=O)c1ccc2[nH]cc(C(C)=O)c(=O)c2c1 > 76.9 µM
CNc1nc(NC)nc(-n2c(C(F)(F)F)nc3ccccc32)n1 > 76.9 µM
O=C(CC(NS(=O)(=O)c1ccc(Cl)cc1)c1ccco1)NCc1ccco1 (stereo unspecified) > 76.9 µM
Cn1cnnc1SCC(=O)OCN1C(=O)c2ccccc2C1=O > 76.9 µM
Brc1c(CSc2nnc(-c3ccco3)o2)nc2ccccn12 > 76.9 µM
CCCOc1ccc(C(CC(=O)O)NC(=O)c2ccc3c(c2)OCO3)cc1 (stereo unspecified) > 76.9 µM
CC(=O)N1CC=C2C(C#N)=C(N)C(C#N)(C#N)C(CCc3ccccc3)C2C1 (stereo unspecified) > 76.9 µM
COc1ccc(OC)c(NC(=O)CSc2nc3c(c(=O)n(C)c(=O)n3C)n2C)c1 > 76.9 µM
CCN1CCCC1CNC(=O)Cn1cnc2ccc(S(=O)(=O)N3CCC(C)CC3)cc2c1=O (stereo unspecified) > 76.9 µM
CCOC(=O)Nc1cccc(NC(=O)c2cc(OC)cc(OC)c2)c1 > 76.9 µM
Cc1cc2cc(CNC(=O)c3cc4ccccc4o3)ccc2n1C > 76.9 µM
O=C(CN1C(=O)CSc2ccccc21)N1CCc2ccccc21 > 76.9 µM
COc1ccc(-c2ccc(SCC(=O)N3CCOCC3)nn2)cc1 > 76.9 µM
Cc1nc(NC2=NCN(CCCN3CCOCC3)CN2)nc2c(C)cccc12 > 76.9 µM
N#CC1=C(N)C(C#N)(C#N)[C@H](c2ccsc2)[C@H]2COCC=C12 > 76.9 µM
Cc1ccc2cc(C#N)c(SCC(=O)NCc3ccco3)nc2c1 > 76.9 µM
Cc1ccc2c(CC(=O)N3CCc4ccccc43)coc2c1 > 76.9 µM
CCC(C)NC(=O)C1CCCN(S(=O)(=O)c2ccc(-n3cnnn3)cc2)C1 (stereo unspecified) > 76.9 µM
O=C1CC2CS(=O)(=O)CC2N1c1ccc(Cl)cc1Cl (stereo unspecified) > 76.9 µM
